From article PMC7819943, “Rice protein-binding microarrays: a tool to detect cis-acting elements near promoter regions in rice”
The list shows a part of the results.

These sequences were tested against T1, OsWOX13 (Oryza sativa, UniProt Q5QMM3 1-267) (assay: protein-binding microarray (RPBM); PBS, 2% BSA, 51.3 ng/ul salmon testes DNA, 50 uM zinc acetate, 200 nM TF, 25 C, 1 h; high values mean tight binding). Details: protein: recombinant; tags: N-terminal polyhistidine and DsRed monomer fusion (pET32a); label: CyDye5-dUTP incorporated in the synthesized complementary strand; 3' TTTTT single-stranded linker to array surface; dsDNA, one strand shown.
T1 sequence: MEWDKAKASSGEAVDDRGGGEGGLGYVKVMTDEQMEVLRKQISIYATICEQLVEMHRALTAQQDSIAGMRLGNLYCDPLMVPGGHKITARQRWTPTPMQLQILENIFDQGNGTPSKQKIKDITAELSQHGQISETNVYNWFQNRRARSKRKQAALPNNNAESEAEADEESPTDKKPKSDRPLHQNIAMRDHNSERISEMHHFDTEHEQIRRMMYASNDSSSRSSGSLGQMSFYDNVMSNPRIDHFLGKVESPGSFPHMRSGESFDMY
Summary of the method: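 An Axon 4000B scanner gave the binding signal as per-feature fluorescence intensity in arbitrary units. This followed washing of a custom Agilent array that had been incubated for 1 h at 25 °C with 200 nM protein in PBS, 2% BSA, salmon testes DNA and 50 µM zinc acetate. The proteins were transcription factors fused at the N-terminus to polyhistidine and DsRed, expressed in E. coli BL21-CodonPlus and purified on Ni–NTA.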
For “CTTAAATAACAGATATTTTAATCCAAACAGTTATGATATACGGAGTCACCTAGTGCAG”, the binding signal was 3560 fluorescence intensity (a.u.).
With “ATTATTTATTTTGTTTGTGATTTGCTTTATTATTAAAATACGGAGTCACCTAGTGCAG” the binding signal was 6680 fluorescence intensity (a.u.).
“AATATCAATTTAGACACGAATTTTATAAGCAAATTATAGGCGGAGTCACCTAGTGCAG” was tested, and the binding signal was 13600 fluorescence intensity (a.u.).
With “AATTATACAATCAATCAAATACTGAAATTTAAAATTGGTACGGAGTCACCTAGTGCAG” the binding signal was 15800 fluorescence intensity (a.u.).
For “TGGTGATGGATTAGATTTGTGTCACTTCTAAGGGAGTAAACGGAGTCACCTAGTGCAG”, the binding signal was 24400 fluorescence intensity (a.u.).
For “CTACCTTTAATTAGCTTTGCCATAAACGACGTGGGAGTATCGGAGTCACCTAGTGCAG”, the binding signal was 10300 fluorescence intensity (a.u.).
In the case of “TGCTTGGATTGAGGGATTGATTGATTTCTTCTCTGAACTTCGGAGTCACCTAGTGCAG”, the binding signal is reported as 44900 fluorescence intensity (a.u.).
In the case of “ATTGATTTGATTAGTTAGTTTGATCTGGGCTTCTGCATTCCGGAGTCACCTAGTGCAG”, the binding signal is reported as 32800 fluorescence intensity (a.u.).
In the case of “GTGATATTTGGGATAATTGTATCCTCATTTTCAATCCTTTCGGAGTCACCTAGTGCAG”, the binding signal is reported as 5020 fluorescence intensity (a.u.).
With “CTATATCATTTACAAATTAATCAAATTTAAAGGAGTTTTACGGAGTCACCTAGTGCAG” the binding signal was 7180 fluorescence intensity (a.u.).
With “ACTACTCCACTAATTGATTTACTACTTAGTACTAAGTACTCGGAGTCACCTAGTGCAG” the binding signal was 35900 fluorescence intensity (a.u.).
In the case of “CTGCTAATCACTCACGTATAGTTCGTACTTCATTTCTTCTCGGAGTCACCTAGTGCAG”, the binding signal is reported as 12000 fluorescence intensity (a.u.).
For “TAACTAATTATGTGTTAATTCATCTTTTCATTTACGTGTCCGGAGTCACCTAGTGCAG”, the binding signal was 26700 fluorescence intensity (a.u.).
In the case of “TGAATAATTTTGTCAAACACATACTAGCCAGACAAATAAGCGGAGTCACCTAGTGCAG”, the binding signal is reported as 5510 fluorescence intensity (a.u.).
In the case of “ACAGCCTCGGCAGTCAATCAACCCTAGTAAATTTCATCGTCGGAGTCACCTAGTGCAG”, the binding signal is reported as 11800 fluorescence intensity (a.u.).
With “GTAAATTGTAGATGGCTGCCGACCAGTGGGGTTGGAAATGCGGAGTCACCTAGTGCAG” the binding signal was 3670 fluorescence intensity (a.u.).
“CTGTCATTAGAGACTAATTGGATTAGTTTAATCACCTAATCGGAGTCACCTAGTGCAG” was tested, and the binding signal was 17900 fluorescence intensity (a.u.).
“TTAAACTAAGATTAACATAATTTGGACAATGATTTTAATGCGGAGTCACCTAGTGCAG” was tested, and the binding signal was 19800 fluorescence intensity (a.u.).
In the case of “AGCATATAATTGATTAACTATTAGAAAAGGATTTAGAATGCGGAGTCACCTAGTGCAG”, the binding signal is reported as 51000 fluorescence intensity (a.u.).
For “GAATTGATGAAAACATAAATTAACTCCTCGTACCCTTTTACGGAGTCACCTAGTGCAG”, the binding signal was 6640 fluorescence intensity (a.u.).
For “AGTAATAATCCAATGACTGGTTTGAGGCACGCATTAGGCGCGGAGTCACCTAGTGCAG”, the binding signal was 4790 fluorescence intensity (a.u.).
“CTCATTGGATGAATTGACAGAGTCTCTTGCCCTTTACCTTCGGAGTCACCTAGTGCAG” was tested, and the binding signal was 13500 fluorescence intensity (a.u.).
With “TTGTTTTAATTAGAACCACCAAATAGTACTACTTCACACGCGGAGTCACCTAGTGCAG” the binding signal was 13200 fluorescence intensity (a.u.).
In the case of “TTCAGCAAATTAGCAAATATTGCATCTTGTGTTTCCTCTGCGGAGTCACCTAGTGCAG”, the binding signal is reported as 7600 fluorescence intensity (a.u.).
For “CAATTTCATTTCCAATCACACAGATTTGCTCTCTTCTTCTCGGAGTCACCTAGTGCAG”, the binding signal was 10300 fluorescence intensity (a.u.).
With “TCCAGTGATTAATCTCTTCTCCATCTCTGCCCTGCACCCTCGGAGTCACCTAGTGCAG” the binding signal was 21400 fluorescence intensity (a.u.).
“TGTAATTACATGTAAGTTACAGTGTAATTACATATAAGTTCGGAGTCACCTAGTGCAG” was tested, and the binding signal was 22300 fluorescence intensity (a.u.).
“AATTAATCAGCCAATCACAATCTCTCAAACTACACGGACTCGGAGTCACCTAGTGCAG” was tested, and the binding signal was 35500 fluorescence intensity (a.u.).
“GTGATTGATGTAAATGCCTTAACGGTCCAGCACCTCAGCTCGGAGTCACCTAGTGCAG” was tested, and the binding signal was 61200 fluorescence intensity (a.u.).
For “GTTCTAAACAGACCTAAATTGCACCCTAGTAAGAAGTAAGCGGAGTCACCTAGTGCAG”, the binding signal was 7170 fluorescence intensity (a.u.).
With “GCAATTTGATTTGGCCTGTATATTATTATGTGCAGGGTTCCGGAGTCACCTAGTGCAG” the binding signal was 13800 fluorescence intensity (a.u.).
With “TCAAGTTGAATTGGCCCTGATTGACAGACGAGCAGTGACTCGGAGTCACCTAGTGCAG” the binding signal was 29600 fluorescence intensity (a.u.).
With “CGCCGTCCATCTCCATTAATGCCTCCATCCACCTCGCCCACGGAGTCACCTAGTGCAG” the binding signal was 3320 fluorescence intensity (a.u.).
“CCCAATAACAAAACAAATTACAGATTCCGCCAGAAAACTGCGGAGTCACCTAGTGCAG” was tested, and the binding signal was 9050 fluorescence intensity (a.u.).
“ATTTTATAATTGAACAGTATTTTATAATTTTGAATGTACACGGAGTCACCTAGTGCAG” was tested, and the binding signal was 17600 fluorescence intensity (a.u.).
For “TATGTTCTTGATTTGTCCTGTTACATTGCTGACATATGTGCGGAGTCACCTAGTGCAG”, the binding signal was 8650 fluorescence intensity (a.u.).
In the case of “GATAAGTGATTGATTAACTACTAATTTAATTATCACTGTGCGGAGTCACCTAGTGCAG”, the binding signal is reported as 63300 fluorescence intensity (a.u.).
For “AAAATTATATAATTATAATTTATTTTATTGCAACTTGATTCGGAGTCACCTAGTGCAG”, the binding signal was 27000 fluorescence intensity (a.u.).
“GACCGTAATTACCTTAGTGCAAATTCTACATATCTATATACGGAGTCACCTAGTGCAG” was tested, and the binding signal was 14800 fluorescence intensity (a.u.).
With “ACTCTACTGATAGATTTGATTGTAAACATTGTTTTCTTGCCGGAGTCACCTAGTGCAG” the binding signal was 30600 fluorescence intensity (a.u.).
“ACAAATTTAATCAATACTAATTTAGTAAAGTGCCCGCGCACGGAGTCACCTAGTGCAG” was tested, and the binding signal was 35900 fluorescence intensity (a.u.).
With “TAAATTTAGCCTTTGATTTCTTCTCTACAAAATAAATTTCCGGAGTCACCTAGTGCAG” the binding signal was 4040 fluorescence intensity (a.u.).
For “ATATGATGTGATGGAAAGTTAGGAATAGGCGGAAACTATACGGAGTCACCTAGTGCAG”, the binding signal was 4140 fluorescence intensity (a.u.).
“TGGGCTAAACGCATCAATCACACACGCAACGTGGACGGGCCGGAGTCACCTAGTGCAG” was tested, and the binding signal was 14600 fluorescence intensity (a.u.).
With “TAGGAGTAATTAACTTTATAATTTATAAGTTGATTTGTATCGGAGTCACCTAGTGCAG” the binding signal was 40900 fluorescence intensity (a.u.).
With “ATATATATATATATATCCATATTCCTTCCCCTCGCACTGTCGGAGTCACCTAGTGCAG” the binding signal was 4060 fluorescence intensity (a.u.).
For “ATAAGTTGTTAATTAATTAAACCATTGTTTGTGGATTGTGCGGAGTCACCTAGTGCAG”, the binding signal was 25200 fluorescence intensity (a.u.).
“TGATTAATTTGAGAAATTTCGAATTCTATTATTTGATGATCGGAGTCACCTAGTGCAG” was tested, and the binding signal was 31500 fluorescence intensity (a.u.).
For “TCTGATGGGCGCTGGCTATCAATGTATGTCACTGTGTTGTCGGAGTCACCTAGTGCAG”, the binding signal was 6300 fluorescence intensity (a.u.).
For “ATAATTAAAACTCAATTAATCACATGTTATTTCTATCTCACGGAGTCACCTAGTGCAG”, the binding signal was 19100 fluorescence intensity (a.u.).
For “ACACATTAATTTAGAGGTAATAAATACAATAGATTGCATCCGGAGTCACCTAGTGCAG”, the binding signal was 17200 fluorescence intensity (a.u.).
For “TCCAATTTCATTGGAATTAATTGTTAATCCATCCTTTGATCGGAGTCACCTAGTGCAG”, the binding signal was 14900 fluorescence intensity (a.u.).
In the case of “TAGTTCATTGATTATAGCATTGGAAGTTTGGATCCTCATTCGGAGTCACCTAGTGCAG”, the binding signal is reported as 3990 fluorescence intensity (a.u.).
In the case of “ATACTTATAAGTTAAAATTTAAATTTTCAACATTGAATTTCGGAGTCACCTAGTGCAG”, the binding signal is reported as 4290 fluorescence intensity (a.u.).
